Assay results reported in PubChem BioAssay AID1240 (Sanford-Burnham Center for Chemical Genomics, 2008).
Hit rate of the full screen: of about 50,000 compounds, about 800 (1.6%) showed an effect of 50% or more. The list shows a part of the results.

Biological target: Bcl-2-like protein 10 (Homo sapiens) (UniProt Q9HD36)
Test: TR3 peptide-Bcl-B binding displacers, biochemical primary FP assay, phenotype converters (AID 1240);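 note: 0% = Bcl-B with tracer peptide and DMSO and 100% = tracer peptide lacking Bcl-B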
Conditions: GST-Bcl-B / FITC-TR3 peptide fluorescence polarization; stronger effect = higher value; compound at 3.75 mg/L

UniProt Q9HD36, sequence (Q9HD36 whole entry, looked up): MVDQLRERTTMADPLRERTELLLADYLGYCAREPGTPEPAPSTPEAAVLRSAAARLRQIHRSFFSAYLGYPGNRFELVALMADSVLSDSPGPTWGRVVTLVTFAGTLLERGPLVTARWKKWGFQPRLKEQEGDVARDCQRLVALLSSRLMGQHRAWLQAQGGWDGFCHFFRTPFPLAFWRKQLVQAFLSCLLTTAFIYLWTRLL

Row | SMILES | displacement [%]
1 | Cc1ccc(NC(=O)CN(c2cc(Cl)cc(Cl)c2)S(C)(=O)=O)cc1 | 1.9
2 | Cc1cc(N2C(=O)c3ccc(S(=O)(=O)c4ccc(C(=O)O)cc4)cc3C2=O)ccc1[N+](=O)[O-] | -7.7
3 | CC(NC(=O)Cc1ccccc1)C1COc2ccccc2O1 (stereo not drawn) | -10.4
4 | OCn1c2ccc(Cl)cc2c2cc(Cl)ccc21 | -5.4
5 | O=C1c2ccccc2NC(c2ccc(Cl)cc2Cl)N1Cc1ccccc1 (stereo not drawn) | 14.4
6 | Cc1ccc2nsnc2c1NC(=O)c1cccc2ccccc12 | -4.4
7 | Cc1ccc(S(=O)(=O)NCc2nnc(NC(=O)c3ccc(Br)cc3)s2)cc1 | -0.6
8 | COc1ccc(CNC(=O)CCCOc2ccc(Cl)cc2Cl)cc1 | -6.1
9 | CC(=O)Nc1ccc(S(=O)(=O)N(c2cc([N+](=O)[O-])ccc2F)S(=O)(=O)c2ccc(NC(C)=O)cc2)cc1 | 4.8
10 | CCOC(=O)C(=CC(=CN(C)C)C=C(C(=O)OCC)C(=O)OCC)C(=O)OCC | -9.5
11 | COc1ccc(OC)c(C2/C(=C(\O)c3ccccc3)C(=O)C(=O)N2c2cccc(Cl)c2)c1 (stereo not drawn) | -1.8
12 | Cc1cc(OCC(=O)NCCc2ccccc2)ccc1Cl | 8.5
13 | CCCc1cc(=O)n2[nH]c(-c3cccc(Cl)c3)cc2n1 | 8.8
14 | Cc1cc(C)n(-c2nc(Nc3ccccc3C(F)(F)F)nc(-n3nc(C)cc3C)n2)n1 | 11.4
15 | CCCC(=O)Nc1ccc2oc(-c3ccc(OC)c(Cl)c3)nc2c1 | -14.6
16 | CCN1CCC2(CC1)CC1CC3C=CC1(CN2C(C)=O)O3 (stereo not drawn) | 7.3
17 | CC(NC(=O)C(=O)Nc1ccc(F)cc1)c1ccccc1 (stereo not drawn) | 4.6
18 | CCc1c(C)nc2c(C)c(-c3ccc(C)cc3)[nH]n2c1=O | 6.7
19 | O=C(O)C(Cc1ccccc1)NC(=S)Nc1ccccc1 (stereo not drawn) | 1.7
20 | COC(=O)C1=CNC=C(C(=O)OC)C1c1cccs1 | 2.9
21 | CC(=O)C(Sc1ccccc1)C(=O)c1ccccc1 (stereo not drawn) | -4.8
22 | COc1ccccc1/C=C1\SC(N2CCCC2)=NC1=O | -137
23 | O=C1/C(=C/c2ccc(-c3ccc([N+](=O)[O-])cc3)o2)SC(=S)N1Cc1ccco1 | -8.5
24 | S=c1[nH]ncn1/N=C/c1ccc(Br)cc1 | -9.1
25 | CC(C)c1ccc(C2/C(=C(\O)c3ccc(F)cc3)C(=O)C(=O)N2c2nccs2)cc1 (stereo not drawn) | 15.6

Row | SMILES | displacement [%]
26 | COc1cc(Br)c(CN2CCN(Cc3cc(OC)c(OC)c(OC)c3)CC2)cc1OC | -0.7
27 | CCC(c1ccccc1)c1nnc(NC(=O)Nc2ccccc2)s1 (stereo not drawn) | 7.1
28 | O=C(c1ccc(F)cc1)N1CCN(Cc2ccc(F)cc2)CC1 | 11.1
29 | COc1ccccc1/C=C/C(=O)c1c2c(c(C)[nH]c1=O)CCCC2 | -1.1
30 | CCOc1cc(/C=N/N2CCN(c3ccccn3)CC2)ccc1O | -3.3
31 | CSc1nnc2c(n1)OC(c1ccc(N(C)C)cc1)Nc1ccccc1-2 (stereo not drawn) | 10.8
32 | CSc1ccc(C=Nc2ccc(C#N)cc2)cc1 | 7.1
33 | Clc1ccccc1CN1CCN(Cc2ccccn2)CC1 | -0.2
34 | CC(C)CC(=O)N1CCN(Cc2ccco2)CC1 | -15.1
35 | COc1ccc(C(=O)Nc2ccc(OC)c(OC)c2)c(OC)c1 | -4.4
36 | Cc1ccccc1OCC(=O)N=Nc1c(O)[nH]c(=O)[nH]c1=O | 6.9
37 | O=C(NC(=S)Nc1ccc(Cl)c(-c2nc3ccccc3o2)c1)c1ccco1 | 5.1
38 | Cn1c(=O)c2c(ncn2CC(=O)NC2CCCC2)n(C)c1=O | -5.9
39 | O=C1OC(c2ccccc2F)=N/C1=C\c1cccc([N+](=O)[O-])c1 | 9.9
40 | O=C(O)c1cn(-c2ccccc2)nc1-c1ccc(F)cc1 | 3.1
41 | CCCCOC(=O)c1ccc(NC(=O)c2oc3ccc(C)cc3c2C)cc1 | 4.6
42 | CCC1CCCCN1CC(O)COCCC12CC3CC(CC(C3)C1)C2 (stereo not drawn) | 10.8
43 | O=C(COc1ccccc1Cl)Nn1cnnc1 | -5.3
44 | Cc1csc(/C(C#N)=C/c2ccccc2Cl)n1 | 21
45 | COc1cccc(OCCCOc2ccc(C)cc2C)c1 | 3.9
46 | N#Cc1c(/N=C/N2CCCC2)sc2c1CCCC2 | 0.1
47 | COc1ccc(CSC2=NCCN2)cc1Br | 0.4
48 | Cc1cc(OCC(=O)Nc2ccc3c(c2)OCO3)ccc1Cl | 12.4
49 | COC(=O)C1(C(=O)OC)CCCC1(C(=O)OC)C(=O)OC | 1.2
50 | COc1cccc(/C=C2\SC(=S)N(c3cccc(Br)c3)C2=O)c1 | 9.7

Row | SMILES | displacement [%]
51 | COc1ccc(Cl)cc1N(CC(=O)Nc1cccc2cccnc12)S(=O)(=O)c1ccc(C)cc1 | -9.2
52 | CCOc1ccc2nc(SCc3ccccn3)sc2c1 | -31
53 | Cc1nnc(SCC(=O)Nc2ccc3c(c2)oc2ccccc23)s1 | -8.5
54 | CN1CCCC1=NC(=S)CN1CCCC1=S | 27.7
55 | N/C(=N\OC(=O)CCc1ccccc1)c1ccc(Cl)cc1 | 11
56 | COc1ccc(-c2cc(C(=O)Nc3nc(-c4ccccc4)c(C)s3)c3ccccc3n2)c(OC)c1 | -14.2
57 | COc1ccc(Cl)cc1NC(=O)CCN1C(=O)c2ccccc2C1=O | -16.4
58 | Cc1ccc(S(=O)(=O)N(Cc2ccccc2)c2ccccc2C(=O)NC(C)C)cc1 | 5.9
59 | CCOP(=O)(OCC)C(Nc1ccc(I)cc1)c1ccc(O)cc1 (stereo not drawn) | 12.6
60 | COc1ccccc1-c1cc(-c2ccccc2)nc(SC(C(N)=O)c2ccccc2)c1C#N (stereo not drawn) | 0.6
61 | COC(=O)C1=NN(C(=O)c2ccc(C)cc2)C(O)(c2ccc(Cl)cc2)C1 (stereo not drawn) | -3.6
62 | O=C1N=C(N2CCCCCC2)S/C1=C\c1ccccc1Cl | -15.1
63 | Cc1ccc(C(=O)Nc2c(C(=O)Nc3ccccc3)cnn2-c2ccccc2)cc1 | 23.8
64 | CCOC(=O)c1c(N)sc(C)c1CC | -10.9
65 | O=C(Nc1ccc(Oc2ccccc2)cc1)C1COc2ccccc2O1 (stereo not drawn) | -7.4
66 | COc1ccccc1/C=N/NC(=O)C1CC(=O)N(c2ccccc2)C1 (stereo not drawn) | -6.2
67 | CC1(C)Cc2ccccc2-c2nnc(C(F)(F)F)n21 | 7.1
68 | COc1nccnc1NS(=O)(=O)c1ccc(N)cc1 | -1.2
69 | COc1ccccc1C1SCCN1S(=O)(=O)c1ccc(-c2ccccc2)cc1 (stereo not drawn) | 16.3
70 | Cc1c(NS(=O)(=O)c2cc(Cl)ccc2Cl)cccc1[N+](=O)[O-] | -0.1
71 | CC(C)c1ccccc1NC(=O)CCN1C(=O)c2ccccc2C1=O | -6
72 | COc1ccccc1/C=N/NC(=O)c1cc(-c2ccc3ccccc3c2)n[nH]1 | -13.4
73 | CCOC(=O)c1c(N)n(-c2ccc(OC)cc2)c2nc3ccccc3nc12 | 12
